The values below come from article PMC5325411.

Protein sequences, listed by entry. Tags and fused reporters are not part of them.
UniProt Q96E09: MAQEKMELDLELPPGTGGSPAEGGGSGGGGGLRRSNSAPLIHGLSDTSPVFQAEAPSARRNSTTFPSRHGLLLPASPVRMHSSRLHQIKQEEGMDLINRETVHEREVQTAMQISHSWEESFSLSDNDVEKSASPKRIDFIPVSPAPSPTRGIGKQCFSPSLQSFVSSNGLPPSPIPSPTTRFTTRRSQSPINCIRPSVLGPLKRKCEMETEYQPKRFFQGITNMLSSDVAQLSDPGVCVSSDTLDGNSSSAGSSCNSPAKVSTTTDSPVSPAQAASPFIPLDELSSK
UniProt Q15172: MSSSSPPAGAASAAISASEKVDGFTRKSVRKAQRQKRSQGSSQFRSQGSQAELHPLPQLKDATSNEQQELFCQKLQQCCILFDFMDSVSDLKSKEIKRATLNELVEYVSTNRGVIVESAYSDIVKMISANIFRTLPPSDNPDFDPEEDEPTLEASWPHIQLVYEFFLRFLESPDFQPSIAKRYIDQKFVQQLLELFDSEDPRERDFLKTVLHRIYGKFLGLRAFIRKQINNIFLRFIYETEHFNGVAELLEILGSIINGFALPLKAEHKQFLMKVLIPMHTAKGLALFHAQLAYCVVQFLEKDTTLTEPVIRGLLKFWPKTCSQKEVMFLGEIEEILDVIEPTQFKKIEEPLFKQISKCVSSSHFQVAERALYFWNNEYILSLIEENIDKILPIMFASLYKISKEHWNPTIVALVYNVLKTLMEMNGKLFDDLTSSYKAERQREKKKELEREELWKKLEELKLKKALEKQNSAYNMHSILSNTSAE
UniProt P30153: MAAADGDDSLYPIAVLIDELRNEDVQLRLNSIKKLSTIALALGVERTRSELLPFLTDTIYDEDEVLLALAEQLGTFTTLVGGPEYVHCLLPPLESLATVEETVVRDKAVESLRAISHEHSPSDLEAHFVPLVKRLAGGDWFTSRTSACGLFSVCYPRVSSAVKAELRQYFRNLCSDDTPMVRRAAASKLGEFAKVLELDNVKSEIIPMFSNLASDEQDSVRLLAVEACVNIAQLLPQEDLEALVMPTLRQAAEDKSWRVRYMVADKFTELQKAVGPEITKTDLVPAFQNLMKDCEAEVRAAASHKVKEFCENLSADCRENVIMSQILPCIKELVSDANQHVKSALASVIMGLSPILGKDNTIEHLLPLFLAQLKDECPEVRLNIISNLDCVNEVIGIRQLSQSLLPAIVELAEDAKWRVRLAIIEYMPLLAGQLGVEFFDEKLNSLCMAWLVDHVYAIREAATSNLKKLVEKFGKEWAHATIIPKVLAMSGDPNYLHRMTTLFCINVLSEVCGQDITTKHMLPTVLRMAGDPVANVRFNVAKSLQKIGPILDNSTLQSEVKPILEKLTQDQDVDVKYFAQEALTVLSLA

The target of experiment [1] is GFP-tagged FAM122A (UniProt Q96E09). Put plainly: co-IP; 293T transiently co-transfected with GFP-FAM122A or empty vector and a Flag-tagged PP2A subunit; IP with anti-GFP, 48 h after transfection; 50 mM Tris-HCl pH 7.6, 150 mM NaCl, 1 mM EDTA, 1% NP-40; 4°C overnight.
Another experiment has as its target Flag-tagged PP2A-B56α (UniProt Q15172). Kind of experiment: co-IP; reciprocal: 293T transiently co-transfected with a Flag-tagged PP2A subunit or empty vector and GFP-FAM122A; IP with anti-Flag M2 affinity gel; 50 mM Tris-HCl pH 7.6, 150 mM NaCl, 1 mM EDTA, 1% NP-40; 4°C overnight.
A further experiment has as its target GST-tagged FAM122A (UniProt Q96E09). Kind of experiment: pull-down; purified GST or GST-FAM122A incubated with His-tagged PP2A subunits expressed in E. coli BL21; GST pull-down, blot with anti-His and anti-GST; only the target purified.
The target of experiment [2] is endogenous FAM122A (human (endogenous in 293T and Jurkat)) (UniProt Q96E09). Kind of experiment: co-IP; untransfected 293T and Jurkat lysates; IP with anti-FAM122A antibody or non-specific IgG and protein A/G-agarose; endogenous PP2A subunits by western blot. Background: Immunoblotting shows a protein as a band on a membrane.
The target in experiment [3] is GFP-tagged FAM122A (UniProt Q96E09). Put plainly: co-IP; 293T transiently transfected with GFP-FAM122A or GFP; IP with anti-GFP antibody or non-specific IgG; endogenous PP2A subunits by western blot.
Another experiment concerns the target Flag-tagged PP2A-Aα (UniProt P30153). Put plainly: co-IP; 293T stably expressing FAM122A or empty vector, transiently transfected with Flag-PP2A-Aα; IP with Flag antibody, western blot.

Results are given in words; binding and its absence hold for the method and conditions named. In cells and extracts the contact can be indirect. Some entries that bind do so weakly or less than the wild type.

“Flag-tagged PP2A-B56α (from UniProt Q15172 1-486)”: the binding result with GFP-tagged FAM122A [1] is reported as “no binding”. In the case of “GFP-tagged FAM122A (from UniProt Q96E09 1-287)”, the binding entry with Flag-tagged PP2A-B56α is on record as “no binding”. Regarding “His-tagged PP2A-B56α (from UniProt Q15172 1-486)”, the binding result with GST-tagged FAM122A is recorded as “no binding”. As to “endogenous PP2A-B56α (from UniProt Q15172 1-486)”, the binding entry in experiment [2] is “no binding”; in the experiment with GFP-tagged FAM122A [3], “no binding”; with Flag-tagged PP2A-Aα it was “binds”.
